Assay results as given in ChEMBL document CHEMBL4888484, “Replenishing the malaria drug discovery pipeline: Screening and hit evaluation of the MMV Hit Generation Library 1 (HGL1) against asexual blood stage Plasmodium falciparum ,using a nano luciferase reporter read-out” (2022).
The whole screen tested about 150,000 compounds, of which about 540 (0.36%) showed an effect of 50% or more. Some of the results follow.

These molecules were tested on Plasmodium falciparum (assay: Primary screen in NF54 nanoGlo assay, in single point, at 2uM, 72h; a lower Z score goes with more inhibition). Conditions: timepoint 72 hour.
Format: functional, Erythrocyte

| SMILES | % Inhibition [%] | Z score |
| --- | --- | --- |
| C=C(C)CN1CCC(N[C@H]2CCCc3nc(C)sc32)CC1 | -11 | 1.25 |
| CC(NC(=O)NC1CCc2cnn(C(C)C)c2C1)C(=O)NCCF (stereo unspecified) | 0 | 0.06 |
| C[C@@H](Cn1ccnc1-c1ccnc2ccccc12)Oc1cccnc1 | -5 | 0.78 |
| O=C(Nc1ccc(Cl)cn1)c1ccn(COc2ccc(Br)cc2Cl)n1 | -10 | 1.13 |
| COc1ccc(CCNC(=O)N2CC[C@H](S(C)(=O)=O)C2)cc1F | 3 | -0.3 |
| c1cnc(N2CCN(C3CCCCCC3)CC2)cn1 | 8 | -0.91 |
| CCc1nncn1C1CCN(S(=O)(=O)c2cc(F)cc(F)c2)CC1 | -2 | 0.31 |
| C[C@H](NC(N)=O)C(=O)Nc1ccc(N(C)C)nc1 | -14 | 1.89 |
| O=S(=O)(NCC1CCCCCC1)c1ccoc1 | -6 | 0.98 |
| Cc1noc([C@H]2CCN(C(=O)Nc3cnn(C(C)C)c3)C2)n1 | -10 | 1.69 |
| O=C1CC[C@@H]2CN(c3cnccn3)CC[C@@H]2N1CCC1=CCCCC1 | -7 | 0.91 |
| CCCCCN1CC(=O)N[C@@H]1c1csnn1 | -19 | 2.89 |
| c1ccc(-n2nc(C3CC3)nc2COC[C@H]2CCCO2)cc1 | -8 | 1.64 |
| NC(=O)c1ccc(OCC(F)(F)F)cc1 | -1 | 0.15 |
| CC(C)c1csc(C2CCCN(C(C(=O)O)c3ccccc3F)C2)n1 (stereo unspecified) | -3 | 0.53 |
| CC(C)(C)c1ccc(S(=O)(=O)CC2=NN=C(O)c3ccccc3O2)cc1 | -10 | 1.93 |
| CN(C)c1nc(NCc2cc(C(C)(C)C)n[nH]2)ncc1F | 5 | -0.96 |
| CNC(=O)CN(CC(=O)NC)Cc1ccc(COCc2ccccc2)cc1 | 29 | -3.26 |
| COc1ccc(NC(=O)[C@H]2CCN(c3cnn(C)c(=O)c3)C2)cc1 | -6 | 1.08 |
| COc1ccccc1CCN(C)C(=O)[C@@H]1CNCCO1 | -19 | 2.17 |
| C[C@H]1CN(C(=O)c2cccc(-c3nc(N)nc4[nH]cnc34)c2)CCCO1 | 1 | -0.27 |
| Nc1ccnc(N2CCC(CO)(CCCc3ccccc3)CC2)n1 | 3 | -0.45 |

| SMILES | % Inhibition [%] | Z score |
| --- | --- | --- |
| Cn1cc([C@]2(C)NC(=O)N(Cc3ncc(C(C)(C)C)o3)C2=O)cn1 | -6 | 0.7 |
| Cn1ncc2c(N3CCNC(=O)CC3)ncnc21 | -4 | 0.6 |
| NS(=O)(=O)c1cnc(NCCC(=O)N2CCCCCC2)s1 | 2 | -0.37 |
| CC1CN(C(=O)C2OCC3COCCC32)CC(C)[S+]1[O-] (stereo unspecified) | -2 | 0.44 |
| CN(CCN1CCOCC1)[C@@H](C(=O)O)c1cccc(-c2ccccc2)c1 | 1 | -0.16 |
| COC(=O)n1ccc(C(=O)Nc2ccc(C)cc2C)n1 | -1 | 0.23 |
| COc1ccc2[nH]nc(CN3CCCC[C@@H]3CCc3nccn3C)c2c1 | 3 | -0.45 |
| CCn1cc(CN(C)C(=O)c2nc3n(n2)CCCN3)cn1 | -1 | 0.12 |
| Cc1ccccc1-c1nnc(N2CCC(N3CCCS3(=O)=O)CC2)n1C | -17 | 2.48 |
| CCCN1CCN(CCCNC(=O)CCCN2C(=O)CCn3nc(-c4cccn4C)cc32)CC1 | -8 | 1.58 |
| CC(C(=O)O)C(NC(=O)c1cscn1)c1ccccc1 (stereo unspecified) | -4 | 0.37 |
| CC(C)CCNC(=O)c1ccc(N2CCCc3ccccc32)s1 | -4 | 0.74 |
| O=C(NC1CC(O)C(CO)C1)C1CCCC1 (stereo unspecified) | -12 | 1.83 |
| CC(=O)Nc1cc(C)c(S(=O)(=O)Nc2nccn2-c2ccccc2)cc1Br | -2 | 0.35 |
| CO[C@@]1(CNc2nc3cccc(F)c3o2)CCS(=O)(=O)C1 | 4 | -0.81 |
| COc1ccc([C@H]2CCc3nc(C(=O)N4CCN(c5ccccc5OC)CC4)cn3C2)c(OC)c1 | 0 | 0.06 |
| C[C@H](C(=O)Nc1ccncc1F)C1CCOCC1 | -7 | 1.3 |
| Cc1cc(C)c(C#N)c(NC[C@H]2CN(C)CCN2C)n1 | -9 | 0.88 |
| CNc1ccnc(NCCCOC2CCCC2)n1 | 3 | -0.4 |
| CNc1nc(N2CC[C@@](O)(C3CCOCC3)[C@H](C)C2)ncc1F | 7 | -1.16 |
| NC(=O)c1cc2c(nc1-c1ccc(C(=O)N3CCOCC3)cc1)CCC2 | 1 | -0.24 |
| CCOC(=O)c1cnn(Cc2csc(-c3ccccn3)n2)c1C#N | -9 | 1.72 |

| SMILES | % Inhibition [%] | Z score |
| --- | --- | --- |
| CCn1nccc1S(=O)(=O)NCC1(C(C)C)CC1 | 10 | -1.37 |
| CC(CC(O)c1cccs1)NCc1nccn1C (stereo unspecified) | 14 | -1.68 |
| CCC[C@H](O)CN(Cc1ccc2c(c1)OCO2)Cc1ccc(C)o1 | -9 | 1.3 |
| O=C(Cc1ccc(Cl)cc1)Oc1ccccc1N1C(=O)C2CCCCC2C1=O (stereo unspecified) | 2 | -0.25 |
| CC(C)(NC(=O)c1ccnc(C2CC2)c1)c1nccs1 | -8 | 1.7 |
| O=C(COc1ccc(-n2cccn2)nn1)NCc1nccc(N2CCCCC2)n1 | -12 | 2.23 |
| CCc1c(C(=O)N2C[C@@H](C)[C@](C)(C(=O)O)C2)cnn1CC(C)C | 2 | -0.38 |
| Cc1cc(C(=O)NCCc2ccccn2)cc(NCC(F)(F)F)n1 | -5 | 0.68 |
| CCC(CC)C(=O)Nc1ccc(Cl)c(Cl)c1 | 3 | -0.54 |
| Cc1ncc2ccc(C(=O)N[C@@H](CO)c3ccc(Cl)cc3C(F)(F)F)cn12 | -17 | 2.22 |
| CC(C)c1nc(N2CCCC2=O)sc1C(=O)NC1CCCCCC1 | -2 | 0.18 |
| COc1cncc(O[C@H]2CCCN(S(=O)(=O)C(C)C)C2)n1 | -15 | 2.49 |
| Cc1nc(O)c2c(n1)CN(Cc1cc(Cl)c3c(c1)OCCO3)C2 | -18 | 1.78 |
| CCn1cc(N[C@@H](C)C(=O)NCc2cccs2)cn1 | -6 | 0.9 |
| Cc1ccc(C(=O)Nc2nc3n(n2)[C@H](c2ccc(Cl)cc2)CC(=O)N3)cc1 | -12 | 1.24 |
| CN1CCN(Cc2cnn(-c3cccc(F)c3)c2)C[C@]12CCNC(=O)CC2 | -2 | 0.29 |
| Cc1ccc(F)cc1NC(=O)N1CC[C@@H](CO)[C@@H](O)C1 | -3 | 0.58 |
| CCc1nc2cc(N3C(=O)[C@H]4CCCN4C3=O)ccc2o1 | 5 | -1.03 |
| CC(C)=CCO[C@H]1COCC[C@@H]1NC(=O)c1cccn1C | 20 | -2.57 |
| CC1(C)CCc2sc(NC(=O)N[C@@H]3CCCC[C@H]3S(C)(=O)=O)nc21 | 4 | -0.62 |
| Cc1nc(Cn2cncc(-c3ccccc3)c2=O)oc1C | -3 | 0.33 |
| CCNC(=O)NC1CN(c2cccc(F)c2C#N)C[C@@H]1OC (stereo partly specified) | 2 | -0.2 |

| SMILES | % Inhibition [%] | Z score |
| --- | --- | --- |
| CN(Cc1cccs1)C(=O)CC[C@H](N)c1ccccc1 | -4 | 0.76 |
| NC(=O)C1CCC(C(=O)N2CCC3(CCCCC3)C2)CC1 (stereo unspecified) | -10 | 1.24 |
| Cc1nc(-c2cscc2C)cc(C(C)C)n1 | -19 | 1.74 |
| O=C1C[C@H](N2CCN(/C=C/c3ccccc3)CC2)C(=O)N1c1ccccc1 | -19 | 2.07 |
| CCc1nc(NCc2ccc(F)cc2)c2onc(-c3ccc(C)cc3)c2n1 | -5 | 0.64 |
| CCn1nnnc1-c1cccc(NC(=O)NCc2nc(C)cs2)c1 | -15 | 2.03 |
| CCN1CCN(CCC(=O)NC2CC(C)(OC)C2(C)C)CC1 (stereo unspecified) | 0 | -0.05 |
| Cc1nn(C)c(C)c1C(=O)N(C)Cc1nc(C(F)(F)F)cs1 | -10 | 1.73 |
| CC[C@@H](Cn1nnc2ccccc2c1=O)NC(=O)Nc1cc(OC)cc(OC)c1 | 0 | -0.04 |
| CCN(CC)C(=O)CN(C)[C@@H](C)c1ccncn1 | -2 | 0.28 |
| O=C(Nc1ccccc1N1CCCC1=O)c1ccc2[nH]c3c(c2c1)CCCC3 | -1 | 0.19 |
| CC(C)Oc1cccc(C(=O)N2CC[C@@](C(=O)O)(C(F)(F)F)C2)n1 | -6 | 0.71 |
| Cc1nccn1CC(=O)Nc1cnn(CC(C)C)c1C(C)C | -7 | 0.88 |
| CNS(=O)(=O)c1ccc(N(C)C[C@H](C)c2nccs2)cc1 | -10 | 1.43 |
| O=C(Nc1ccc(N2CCOCC2)nc1)Nc1ccccc1F | -8 | 1.15 |
| c1nc2cc(-c3noc(CCCN4CCCCC4)n3)ccc2[nH]1 | -1 | 0.19 |
| CC(C)(C)CCC1(O)CC(C(=O)NC2CCOC3(CCOC3)C2)C1 (stereo unspecified) | -11 | 1.33 |
| COC(=O)Cc1ccccc1C(=O)N1CC2C(C1)C2(C)C (stereo unspecified) | -4 | 0.6 |
| O=C1CCCN1c1ccc(NCc2cccc(F)c2O)nc1 | 0 | 0.05 |
| O=C1NCCC[C@H]1c1nc(-c2ccsc2)no1 | -2 | 0.36 |
| COc1ccc(OCC(=O)Nc2nc(-c3cccs3)ns2)cc1 | -16 | 1.39 |
| Cc1noc([C@@H]2CC3(CCN(C(=O)CCc4nc5ccccc5s4)CC3)CN2C)n1 | -11 | 1.37 |
